Laboratory results published in PubChem BioAssay (Tox21).
Where “and” joins values, the source holds several entries; their conditions need not be identical. Equal values may be shown once. The shares of active, inactive and inconclusive entries below differ from those in the screen. For some of these results: Potencies of inconclusive entries are doubtful fits and often do not repeat. Calls of active or inactive are those of the source. Unless noted, the call rests on the fitted dose curve; in most records, active means well fitted curve in the direction sought with a large enough effect in the repeat runs; inconclusive means weak or mixed curves; inactive means no such curve, though single readings can be large; an effect the other way counts as inactive or inconclusive.

What was measured:
[1] = qHTS assay to identify small molecule antagonists of the thyroid receptor (TR) signaling pathway (AID 743065); further: nearly all actives have a fitted effect of over 55% in size; further: potency means the concentration at half of the fitted maximal effect
Method in brief: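 GH3.TRE-Luc rat pituitary cells carrying two TR response elements driving luciferase were plated for 4 h, given compound plus 1 nM T3 (final), and incubated 23.5 h at 37 C. ONE-Glo luminescence measured reporter inhibition; CellTiter-Fluor fluorescence tracked cytotoxicity.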

[2] = qHTS assay to identify aromatase inhibitors - cell viability counter screen (AID 743084); conditions: MCF-7 aro ERE viability, CellTiter-Fluor, 24 h; activity change, negative = cytotoxicity: at 70.3 µM (top of the series);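 further: cells stimulated with testosterone during compound exposure; nearly all actives have a fitted effect of over 55% in size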; further: potency means the concentration at half of the fitted maximal effect; on activity change, negative = cytotoxicity: on the % scale 0 is the no-effect control and ±100 the full control effect
[3] = qHTS assay to identify small molecule antagonists of the estrogen related receptor signaling pathway with the pleiotropic PPARgamma coactivator (PGC) from Tox21 10K library - cell viability counter screen (AID 1224840; active means well fitted cell-killing curve with a large enough effect in the repeat runs, not every such curve was filed as active; inconclusive means weak or mixed curves, or effect the other way; inactive means no such curve, though single readings can be large or run the other way; further: nearly all actives have a fitted effect of over 40% in size; further: potency means the concentration at half of the fitted maximal effect)
Method in brief: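 PGC/ERR cells (2,000/well) plated 6 h, then compound-treated for 17.5 h at 37 C. Viability measured by CellTiter-Fluor fluorescence after 30 min at 37 C, multiplexed with the pathway assay.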

[4] = A CellTox Green Cytotoxicity Assay to monitor cytotoxicity in HepG2 cells - 24 hour (AID 1224878); further: potency means the concentration at half of the fitted maximal effect; nearly all actives have a fitted effect of over 45% in size
Method in brief: (§1)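 HepG2 cells, 600/well, preincubated 5 h with CellTox Green dye, then exposed to Tox21 compounds in DMSO at 37 C for up to 40 h. Dead-cell DNA fluorescence read at the indicated time point.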

[5] = qHTS RealTime-Glo MT Cell Viability Assay in HEK293 cells - 8 hour (AID 1224887); further: nearly all actives have a fitted effect of over 50% in size; further: potency means the concentration at half of the fitted maximal effect
Method in brief: (§2)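 600 cells/well were plated with the nonlytic NanoLuc/prosubstrate reagent, pre-incubated 5 h, then given 23 nL of compound in DMSO. Incubation at 37 C for 40 h, with luminescence from viable-cell-reduced substrate read repeatedly from 0 h.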

[6] = qHTS assay to identify small molecule agonists of the estrogen receptor alpha (ER-alpha) signaling pathway in the presence of an antagonist - cell viability counter screen (AID 1259386);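 further: cells exposed to compounds for 22 h at 37 °C before the viability read; nearly all actives have a fitted effect of over 30% in size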; further: potency means the concentration at half of the fitted maximal effect; on activity change, negative = cytotoxicity: on the % scale 0 is the no-effect control and ±100 the full control effect
Method in brief: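 Cell viability in VM7Luc4E2 cells (endogenous full-length ER-alpha) measured by CellTiter-Fluor fluorescence in the same wells as the luciferase screen. Cells pre-cultured 5 days in charcoal-stripped serum, then treated 22 h with compounds at 15 concentrations plus 10.0nM ICI-182,780.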

[7] = molecular target: Progesterone receptor (Homo sapiens) (UniProt P06401); assay: qHTS assay to identify small molecule agonists of the progesterone receptor (PR) signaling pathway (AID 1346784; calls by dose curve; further: potency means the concentration at half of the fitted maximal effect; nearly all actives have a fitted effect of over 30% in size); conditions: PR-UAS-bla HEK293T, beta-lactamase FRET ratio, 16 h; activation: at 92.4 µM (top of the series) unless noted
Method in brief: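 Using charcoal-stripped serum (2%) to limit endogenous steroids, PR-UAS-bla HEK 293T cells received compounds for 16 hr at 37C after 6 hr plating; beta-lactamase FRET fluorescence was recorded following 2 hr substrate loading at room temperature.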

[8] = molecular target: Voltage-gated inwardly rectifying potassium channel KCNH2 (Homo sapiens) (UniProt Q12809); assay: Human Ether-a-go-go-Related Gene (hERG) channel small molecule antagonists: fluorescence cell-based qHTS assay (AID 1671200); further: nearly all actives have a fitted effect of over 50% in size; further: potency means the concentration at half of the fitted maximal effect
Method in brief: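 Measured: Tl+ flux via fluorescence (480/540 nm) in hERG-expressing U2OS cells after 1 h dye loading at room temperature.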

[9] = molecular target: Androgen receptor (Homo sapiens) (UniProt P10275); assay: qHTS assay to identify small molecule antagonists of the androgen receptor (AR) signaling pathway (AID 743035; active means well fitted inhibition curve with a large enough effect in the signal ratio in the repeat runs, not every such curve was filed as active; inconclusive means weak or mixed curves, or effect the other way; inactive means no such curve, though single readings can be large or run the other way; the % refers to the signal ratio; further: potency means the concentration at half of the fitted maximal effect); conditions: HEK293 AR-UAS-bla, R1881-stimulated, beta-lactamase FRET, 16 h
Method in brief: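 HEK293 cells stably carrying UAS-beta-lactamase reporter, 2,000/well, given compounds plus R1881 agonist and incubated 16 h at 37C. LiveBLAzer B/G FRET substrate then added for 2 h at room temperature before fluorescence reading.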

[10] = molecular target: Estrogen receptor (Homo sapiens) (UniProt P03372); assay: qHTS assay to identify small molecule agonists of the estrogen receptor alpha (ER-alpha) signaling pathway (AID 743075; calls by dose curve;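 further: HEK293 GripTite cells with ER-alpha and UAS-driven beta-lactamase reporter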; further: potency means the concentration at half of the fitted maximal effect); conditions: HEK293 ER-alpha-UAS-bla, beta-lactamase FRET ratio, 18 h; activation: at 70.1 µM (top of the series) unless noted
[11] = qHTS assay to identify small molecule agonists of the androgen receptor (AR) signaling pathway in the presence of an antagonist - cell viability counter screen (AID 1259379); further: nearly all actives have a fitted effect of over 25% in size; further: potency means the concentration at half of the fitted maximal effect
Method in brief: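 MDA-kb2 cells (MMTV-luciferase, AR/GR), 3,000/well, 5 h attachment, then 3.0 µM nilutamide (final) and compounds at 15 concentrations. Viability by CellTiter-Fluor fluorescence after 16 h at 37 °C, 0% CO2, in the reporter wells.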

[12] = molecular target: Peroxisome proliferator-activated receptor delta (Homo sapiens) (UniProt Q03181); assay: qHTS assay to identify small molecule agonists of the peroxisome proliferator-activated receptor delta (PPARd) signaling pathway (AID 743212; calls by dose curve; further: on the % scale 0 is the no-effect control and ±100 the full control effect); conditions: HEK293H PPARd-UAS-bla, beta-lactamase FRET ratio, 17 h; activation: at 62.6 µM (top of the series) unless noted
Method in brief: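 GeneBLAzer PPARd UAS-bla HEK293H cells (beta-lactamase reporter under UAS control), plated and rested 5 h at 37 C, then exposed to compounds in DMSO at 37 C; LiveBLAzer B/G FRET substrate added, 2 h room temperature, fluorescence read.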

[13] = molecular target: Luciferin 4-monooxygenase (Photinus pyralis) (UniProt P08659); assay: qHTS assay to identify small molecule inhibitors of firefly luciferase (AID 1224835); further: nearly all actives have a fitted effect of over 25% in size; further: potency means the concentration at half of the fitted maximal effect
Method in brief: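 Quantitative HTS format; KM concentrations of both substrates. Purified P. pyralis FLuc activity quantified from luminescence images.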

[14] = qHTS RealTime-Glo MT Cell Viability Assay in HEK293 cells - 40 hour (AID 1224874); conditions: RealTime-Glo luminescence; max response: stronger effect = lower value; further: nearly all actives have a fitted effect of over 50% in size; further: potency means the concentration at half of the fitted maximal effect
Method in brief: as §2

[15] = A CellTox Green Cytotoxicity Assay to monitor cytotoxicity in HepG2 cells - 16 hour (AID 1224876); further: potency means the concentration at half of the fitted maximal effect; nearly all actives have a fitted effect of over 45% in size
Method in brief: as §1

[16] = test system: thyroid hormone receptor (rat, GH3 cells); assay: qHTS assay to identify small molecule agonists of the thyroid receptor (TR) signaling pathway (AID 743066; calls by dose curve; further: on the % scale 0 is the no-effect control and ±100 the full control effect); conditions: GH3.TRE-Luc cells, TR agonist luciferase, 24 h; activation: at 83.9 µM (top of the series) unless noted
[17] = molecular target: Acetylcholinesterase (Homo sapiens) (UniProt P22303); assay: Acetylcholinesterase (AChE) small molecule antagonists: colormetric cell-based qHTS assay (AID 1347395; calls by dose curve; further: potency means the concentration at half of the fitted maximal effect; nearly all actives have a fitted effect of over 30% in size)
Method in brief: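 Neuroblastoma line SH-SY5Y supplied the enzyme; cells were preincubated with compound for 30 min at 37 C and 5% CO2. Acetylthiocholine with DTNB was then added for 90 min at 37 C, and thiocholine was measured by colour.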

[18] = qHTS assay to identify small molecule agonists of the TGF-beta/Smad signaling pathway (AID 1346859; active means well fitted activation curve with a large enough effect in the signal ratio in the repeat runs, not every such curve was filed as active; inconclusive means weak or mixed curves; the % refers to the signal ratio; further: potency means the concentration at half of the fitted maximal effect)
Method in brief: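 Stable Smad binding element-beta-lactamase HEK 293T cells; 5 hr compound exposure at 37 C under 5% CO2; 2 hr room-temperature substrate step; fluorescence excited at 405 nm, collected at 460 nm and 530 nm.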

[19] = qHTS assay to identify small molecule agonists of the vitamin D receptor (VDR) signaling pathway - cell viability counter screen (AID 743224); further: nearly all actives have a fitted effect of over 50% in size; further: potency means the concentration at half of the fitted maximal effect
Method in brief: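 VDR-bla cells, 4 h after plating, exposed to compounds for 16 h at 37C; viability then read in the same wells as CellTiter-Glo luminescence after 30 min at room temperature, following the bla FRET read.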

[20] = molecular target: Nuclear receptor subfamily 1 group I member 3 (Homo sapiens) (UniProt Q14994); assay: qHTS assay to identify small molecule antagonists of the constitutive androstane receptor (CAR) signaling pathway (AID 1224838); further: potency means the concentration at half of the fitted maximal effect; nearly all actives have a fitted effect of over 40% in size
Method in brief: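 HepG2 cells stably carrying hCAR and a CYP2B6-2.2kb luciferase reporter, seeded 4 hrs before compound (15 concentrations). Stimulated with 50 nM CITCO for 24 hr at 37 C. ONE-Glo luminescence read after 30 min at room temperature.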

[21] = activity change, negative = inhibition: at 58.5 µM (top of the series) unless noted
Tags describe the fitted curve by direction and shape or compound fluorescence and quenching.

Chain of UniProt P10275 (P10275 whole entry, looked up): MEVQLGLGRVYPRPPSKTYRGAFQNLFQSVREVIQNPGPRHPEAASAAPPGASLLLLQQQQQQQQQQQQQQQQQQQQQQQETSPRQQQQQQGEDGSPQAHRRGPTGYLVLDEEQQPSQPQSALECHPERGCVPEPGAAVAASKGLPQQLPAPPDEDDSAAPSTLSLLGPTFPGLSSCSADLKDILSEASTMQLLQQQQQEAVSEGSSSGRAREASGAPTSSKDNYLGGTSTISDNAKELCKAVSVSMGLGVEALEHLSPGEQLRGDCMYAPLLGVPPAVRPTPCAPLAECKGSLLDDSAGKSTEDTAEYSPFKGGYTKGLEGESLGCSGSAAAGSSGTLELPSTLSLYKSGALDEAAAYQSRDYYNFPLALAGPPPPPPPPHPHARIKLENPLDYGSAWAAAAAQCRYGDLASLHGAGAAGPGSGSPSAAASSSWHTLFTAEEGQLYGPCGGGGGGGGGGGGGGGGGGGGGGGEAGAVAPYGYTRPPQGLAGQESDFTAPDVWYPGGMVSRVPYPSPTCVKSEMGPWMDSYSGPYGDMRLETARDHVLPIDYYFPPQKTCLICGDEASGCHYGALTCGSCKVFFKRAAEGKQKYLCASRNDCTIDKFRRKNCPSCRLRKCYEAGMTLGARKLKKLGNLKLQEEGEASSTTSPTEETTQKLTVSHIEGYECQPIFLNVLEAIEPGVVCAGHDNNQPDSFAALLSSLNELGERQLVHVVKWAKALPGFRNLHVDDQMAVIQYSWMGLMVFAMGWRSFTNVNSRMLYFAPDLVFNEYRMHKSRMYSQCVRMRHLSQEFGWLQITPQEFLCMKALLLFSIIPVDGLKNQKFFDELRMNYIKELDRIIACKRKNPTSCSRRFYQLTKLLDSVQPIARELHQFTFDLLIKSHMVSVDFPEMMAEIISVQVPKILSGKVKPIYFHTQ
Chain of UniProt Q03181 (Q03181 whole entry, looked up): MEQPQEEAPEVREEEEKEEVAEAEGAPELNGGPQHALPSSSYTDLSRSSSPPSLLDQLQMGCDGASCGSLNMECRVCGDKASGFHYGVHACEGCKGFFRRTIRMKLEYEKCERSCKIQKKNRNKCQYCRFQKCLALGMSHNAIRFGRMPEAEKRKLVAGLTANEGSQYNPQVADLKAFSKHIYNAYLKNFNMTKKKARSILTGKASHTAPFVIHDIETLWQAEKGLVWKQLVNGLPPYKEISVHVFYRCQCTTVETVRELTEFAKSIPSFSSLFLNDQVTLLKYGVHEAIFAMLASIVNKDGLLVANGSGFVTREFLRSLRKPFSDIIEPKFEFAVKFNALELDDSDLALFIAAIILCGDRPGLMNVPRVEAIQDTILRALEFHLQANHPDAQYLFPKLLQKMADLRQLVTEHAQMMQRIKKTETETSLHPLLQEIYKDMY
Chain of UniProt P03372 (P03372 whole entry, looked up): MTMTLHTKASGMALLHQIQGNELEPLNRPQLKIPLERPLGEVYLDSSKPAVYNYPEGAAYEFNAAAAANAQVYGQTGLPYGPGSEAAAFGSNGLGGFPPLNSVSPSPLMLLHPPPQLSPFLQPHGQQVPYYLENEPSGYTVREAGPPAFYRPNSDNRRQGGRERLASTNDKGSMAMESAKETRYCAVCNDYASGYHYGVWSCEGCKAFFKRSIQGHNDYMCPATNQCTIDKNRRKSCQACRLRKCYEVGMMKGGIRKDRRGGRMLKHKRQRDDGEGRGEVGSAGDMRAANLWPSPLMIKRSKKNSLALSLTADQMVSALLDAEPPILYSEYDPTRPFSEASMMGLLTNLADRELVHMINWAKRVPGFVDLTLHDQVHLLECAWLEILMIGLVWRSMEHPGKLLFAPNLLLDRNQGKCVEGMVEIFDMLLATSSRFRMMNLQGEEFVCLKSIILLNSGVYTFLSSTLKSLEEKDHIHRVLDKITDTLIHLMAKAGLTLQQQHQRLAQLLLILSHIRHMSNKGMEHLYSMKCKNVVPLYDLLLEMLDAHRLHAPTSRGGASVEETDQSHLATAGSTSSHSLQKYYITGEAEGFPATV
Chain of UniProt Q12809 (Q12809 whole entry, looked up): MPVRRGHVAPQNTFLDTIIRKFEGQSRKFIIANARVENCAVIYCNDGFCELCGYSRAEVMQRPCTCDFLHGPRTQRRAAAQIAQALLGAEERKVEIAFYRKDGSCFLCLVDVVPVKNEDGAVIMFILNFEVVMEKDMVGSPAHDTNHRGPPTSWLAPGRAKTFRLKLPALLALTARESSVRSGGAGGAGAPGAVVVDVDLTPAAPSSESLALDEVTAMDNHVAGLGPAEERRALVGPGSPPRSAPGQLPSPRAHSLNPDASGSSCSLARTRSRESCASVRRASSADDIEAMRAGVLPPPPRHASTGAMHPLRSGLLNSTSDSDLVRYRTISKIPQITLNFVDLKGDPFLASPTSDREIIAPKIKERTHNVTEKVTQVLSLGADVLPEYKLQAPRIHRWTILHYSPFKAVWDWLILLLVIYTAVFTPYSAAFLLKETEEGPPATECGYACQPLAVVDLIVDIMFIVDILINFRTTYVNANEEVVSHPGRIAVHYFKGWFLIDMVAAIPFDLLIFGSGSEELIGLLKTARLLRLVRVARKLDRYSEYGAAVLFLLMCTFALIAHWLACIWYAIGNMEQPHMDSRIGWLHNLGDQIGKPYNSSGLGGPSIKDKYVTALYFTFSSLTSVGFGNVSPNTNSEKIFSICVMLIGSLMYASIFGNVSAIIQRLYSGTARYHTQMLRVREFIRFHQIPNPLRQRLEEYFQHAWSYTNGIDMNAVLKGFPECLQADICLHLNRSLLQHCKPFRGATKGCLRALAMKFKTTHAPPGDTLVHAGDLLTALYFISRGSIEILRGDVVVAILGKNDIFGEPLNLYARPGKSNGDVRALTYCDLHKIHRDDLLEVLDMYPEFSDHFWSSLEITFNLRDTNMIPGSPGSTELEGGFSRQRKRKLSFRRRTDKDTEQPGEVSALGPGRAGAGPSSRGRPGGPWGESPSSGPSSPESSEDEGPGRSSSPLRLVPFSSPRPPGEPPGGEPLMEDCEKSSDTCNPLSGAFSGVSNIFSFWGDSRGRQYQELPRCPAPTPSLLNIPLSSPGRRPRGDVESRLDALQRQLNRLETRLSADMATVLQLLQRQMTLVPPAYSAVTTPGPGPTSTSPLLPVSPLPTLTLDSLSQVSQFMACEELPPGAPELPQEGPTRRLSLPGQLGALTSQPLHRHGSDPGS
Chain of UniProt P08659 (P08659 whole entry, looked up): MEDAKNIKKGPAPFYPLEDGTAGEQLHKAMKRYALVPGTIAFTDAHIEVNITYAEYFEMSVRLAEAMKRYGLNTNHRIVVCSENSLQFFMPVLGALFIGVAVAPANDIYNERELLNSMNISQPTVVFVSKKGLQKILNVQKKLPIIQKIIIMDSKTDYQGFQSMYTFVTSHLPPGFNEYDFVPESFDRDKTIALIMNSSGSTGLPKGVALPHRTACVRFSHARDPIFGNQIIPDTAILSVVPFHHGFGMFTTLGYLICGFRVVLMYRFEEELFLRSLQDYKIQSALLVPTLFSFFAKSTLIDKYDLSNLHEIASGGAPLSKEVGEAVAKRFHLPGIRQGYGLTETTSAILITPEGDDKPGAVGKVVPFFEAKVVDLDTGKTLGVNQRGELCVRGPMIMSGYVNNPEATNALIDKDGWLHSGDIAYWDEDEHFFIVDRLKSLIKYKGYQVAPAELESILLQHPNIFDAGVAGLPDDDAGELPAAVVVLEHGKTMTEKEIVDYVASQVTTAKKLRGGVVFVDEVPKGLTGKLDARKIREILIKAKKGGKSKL
Chain of UniProt Q14994 (Q14994 whole entry, looked up): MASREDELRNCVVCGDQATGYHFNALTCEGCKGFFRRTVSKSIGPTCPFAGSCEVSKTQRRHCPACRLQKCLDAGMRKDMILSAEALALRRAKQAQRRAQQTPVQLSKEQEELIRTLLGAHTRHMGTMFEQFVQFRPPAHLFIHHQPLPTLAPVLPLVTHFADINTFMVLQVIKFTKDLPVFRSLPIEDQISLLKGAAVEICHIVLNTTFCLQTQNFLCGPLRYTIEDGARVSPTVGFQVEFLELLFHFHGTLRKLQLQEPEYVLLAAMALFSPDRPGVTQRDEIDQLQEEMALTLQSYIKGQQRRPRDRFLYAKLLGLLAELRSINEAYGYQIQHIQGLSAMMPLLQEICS
Chain of UniProt P22303 (P22303 whole entry, looked up): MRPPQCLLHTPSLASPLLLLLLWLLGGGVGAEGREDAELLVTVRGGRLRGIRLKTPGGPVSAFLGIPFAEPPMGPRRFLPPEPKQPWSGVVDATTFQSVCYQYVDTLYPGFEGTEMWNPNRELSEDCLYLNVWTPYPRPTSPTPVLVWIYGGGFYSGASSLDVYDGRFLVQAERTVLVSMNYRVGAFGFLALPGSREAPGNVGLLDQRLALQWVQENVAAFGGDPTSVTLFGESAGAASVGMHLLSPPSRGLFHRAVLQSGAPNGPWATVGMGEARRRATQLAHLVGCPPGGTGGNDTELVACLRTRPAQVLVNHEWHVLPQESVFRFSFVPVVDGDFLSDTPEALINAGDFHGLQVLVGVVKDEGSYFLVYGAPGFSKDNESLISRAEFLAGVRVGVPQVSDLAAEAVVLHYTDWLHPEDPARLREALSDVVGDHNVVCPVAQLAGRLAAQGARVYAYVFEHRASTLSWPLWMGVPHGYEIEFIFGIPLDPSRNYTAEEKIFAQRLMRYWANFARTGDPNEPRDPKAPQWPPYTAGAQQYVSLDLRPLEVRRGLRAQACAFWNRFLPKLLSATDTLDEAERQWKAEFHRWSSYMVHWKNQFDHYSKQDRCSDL

Clc1ccc(C2(Cn3cncn3)CC(Br)CO2)c(Cl)c1 (centres undefined)
Potency [1]: inconclusive: 60.8 µM [inhibitor, partial curve]
Potency [2]: inactive
Potency [3]: inconclusive: 68.2 µM [cytotoxic, single point]
Potency [4]: inconclusive: 34.5 µM [activator, partial curve]
Potency [5]: inconclusive: 43.4 µM [cytotoxic, partial curve]
Potency [6]: inconclusive: 54.2 µM [cytotoxic, single point]
Potency [7]: inconclusive: 27.1 µM [falling, partial curve, poor fit]
Potency [8]: inconclusive: 43.4 µM [inhibitor, partial curve]

CCOC1Oc2ccc(OS(C)(=O)=O)cc2C1(C)C (centres undefined)
Potency [9, 21]: active: 43.3 µM
Potency [10]: inconclusive: 54.5 µM
Potency [11]: active: 68 µM

ClCCCCl
Potency [1]: inactive
Potency [12]: inactive
Potency [6]: inactive

CCCCc1c(C)nc(NCC)[nH]c1=O
Potency [2]: inactive
Potency [13]: inactive
Potency [14]: inconclusive: 15.5 µM [cytotoxic, full curve]
Potency [4]: inconclusive: 21.9 µM [activator, single point]
Potency [5]: active: 21.9 µM

O=c1[nH]c2ccccc2n1C1CCNCC1
Potency [6]: inactive

C=C(C)CCl
activity change, negative = inhibition [9, 21]: inconclusive: 0.327% [at 7.04 µM]
activity change, negative = inhibition ([9]; at 58.5 µM (top of the series)): inactive: 0.873%

CC(C)(C)OOC(=O)c1ccccc1
Potency [13]: inconclusive: 71.1 µM [inhibitor, partial curve]
Potency [3]: inactive
Potency [15]: inconclusive: 55 µM [activator, single point]
Potency [4]: inconclusive: 49.1 µM [activator, single point]
Potency [5]: inconclusive: 24.6 µM [cytotoxic, partial curve] and inconclusive: 19.5 µM [cytotoxic, partial curve]

CCS(=O)(=O)CCSP(=O)(OC)OC
Potency [16]: inactive
Potency [12]: inactive
Potency [17]: inconclusive: 56.4 µM [inhibitor, partial curve]

CCOC(=O)C(SP(=S)(OC)OC)c1ccccc1 (centres undefined)
Potency [8]: inconclusive: 43.6 µM [inhibitor, partial curve]

CCN(CC)Cc1nccn1-c1ccc([N+](=O)[O-])cc1C(=O)c1ccccc1Cl
Potency [1]: inconclusive: 33.5 µM [inhibitor, single point]

Cc1cc(Cl)ccc1O[C@H](C)C(=O)O
Potency [18]: inconclusive: 38.9 µM [rising, partial curve]

Nc1ncc([N+](=O)[O-])s1
Potency [10]: inactive and inconclusive: 49 µM [activator, partial curve]
Potency [2]: inconclusive: 24.5 µM [cytotoxic, partial curve]
Potency [13]: inconclusive: 39.9 µM [inhibitor, partial curve]
Potency [3]: inconclusive: 49 µM [cytotoxic, partial curve, poor fit]
Potency [11]: inconclusive: 61.6 µM [cytotoxic, partial curve]

Cn1c(-c2ccccc2)cc(-c2ccccc2)[n+]1C
Potency [1]: inconclusive: 54.4 µM [inhibitor]
Potency [10]: inconclusive: 3.46 µM [full curve]
Potency [2]: inconclusive: 68.5 µM [cytotoxic, single point]
Potency [19]: inconclusive: 21.9 µM [cytotoxic, full curve]
Potency [5]: inconclusive: 21.9 µM [cytotoxic, partial curve, poor fit]
Potency [11]: active: 24.3 µM and active: 19.3 µM
Potency [6]: inconclusive: 48.5 µM [cytotoxic, partial curve] and inconclusive: 68.6 µM [cytotoxic, partial curve]
Potency [8]: inconclusive: 27.5 µM [inhibitor, partial curve]

NC(=S)C(N)=S
Potency [12]: inactive
Potency [19]: inconclusive: 27.5 µM [cytotoxic, partial curve, poor fit]

CNCC(O)c1ccc(O)cc1 (centres undefined)
Potency [5]: inactive

Cc1cnc(C2=NC(C)(C(C)C)C(=O)N2)c(C(=O)O)c1 (centres undefined)
Potency [9, 21]: inactive

CC(C)[C@]12CC(=O)[C@H](C)[C@H]1C2
Potency [19]: inactive
Potency [3]: inactive
max response [14]: inactive: -4.49%

CCN(CC)CCN1C(=O)CN=C(c2ccccc2F)c2cc(Cl)ccc21
Potency [6]: inactive

[Cl][Sn]([Cl])([Cl])[Cl]
Potency [14]: inconclusive: 28.2 µM [rising, partial curve]
Potency [8]: inactive

O=C(O)Cc1ccccc1
Potency [11]: inactive
Potency [6]: inactive

O=[N+]([O-])c1ccc([As](=O)(O)O)cc1
Potency [20]: inconclusive: 37.6 µM [inhibitor, single point]
Potency [4]: inconclusive: 61.6 µM [activator, single point]
Potency [6]: inconclusive: 19.3 µM [cytotoxic, single point]
Potency [17]: inconclusive: 0.776 µM [inhibitor, single point]

CCCC1CCCCN1 (centres undefined)
Potency [19]: inconclusive: 33.5 µM [rising, partial curve, poor fit]
Potency [20]: inconclusive: 2.37 µM [inhibitor, full curve]
